Measured values from paper PMC3681697 (Molecular Biology of the Cell, 2013).

Biological target: the molecule itself
Assay: negative-stain transmission electron microscopy

B1: mutant desmin E245D (natural protein)
chain: not shown
binding result: binds
